This is one part of the list.
Tested on: HepG2
Assay: cytotoxicity call (relative viability < 0.9)
Settings: 10 µM

Compound | cytotoxicity call
C[C@@H]1CCCCO[C@H](CN(C)CC2CCCCC2)[C@H](C)CN([C@H](C)CO)C(=O)c2cc(NC(=O)Nc3ccccc3)ccc2O1 | active
C[C@@H]1CN([C@@H](C)CO)C(=O)c2cccc(NC(=O)Nc3ccc(C(F)(F)F)cc3)c2O[C@@H]1CN(C)Cc1ccc2c(c1)OCO2 | active
COc1ccc(CN(C)C[C@H]2OCCCC[C@@H](C)Oc3ccc(NC(=O)Cc4ccccc4)cc3C(=O)N([C@@H](C)CO)C[C@H]2C)cc1 | inactive
COc1ccc2[nH]cc(CCNC(C)=O)c2c1 | inactive
COc1ccc(NC(=O)Nc2ccc3c(c2)C(=O)N([C@@H](C)CO)C[C@H](C)[C@@H](CN(C)S(=O)(=O)c2ccc(Cl)cc2)OCCCC[C@H](C)O3)cc1 | inactive
OCC1CCNCC1 | inactive
COc1ccc(NC(=O)Nc2ccc3c(c2)C(=O)N([C@@H](C)CO)C[C@H](C)[C@@H](CN(C)C(=O)c2ccccc2)OCCCC[C@H](C)O3)cc1 | inactive
C=CC[C@@H](CC(=O)N[C@H](CO)Cc1ccccc1)C(=O)NC[C@@H](OC(=O)[C@@H](CC=C)Cc1ccc(F)cc1)c1ccccc1 | inactive
C[C@H]1CN([C@@H](C)CO)C(=O)c2cc(NC(=O)NC3CCCCC3)ccc2O[C@H]1CN(C)S(C)(=O)=O | inactive
CC(C)(O)C#Cc1ccc([C@@H]2[C@@H](CO)N3CCCCN(S(C)(=O)=O)C[C@@H]23)cc1 | inactive
COc1cc(-c2cc(=O)c3c(=O)cc(-c4ccc(O)c(OC)c4)n(CCc4ccccc4)c3s2)ccc1O | inactive
COc1ccc(S(=O)(=O)Nc2ccc3c(c2)C(=O)N([C@H](C)CO)C[C@@H](C)[C@@H](CN(C)C(=O)Nc2cccc4ccccc24)O3)cc1 | inactive
C[C@@H]1CN([C@@H](C)CO)C(=O)c2cc(Br)cnc2O[C@H]1CN(C)C(=O)Nc1ccc(F)cc1 | inactive
C[C@H](CO)N1C[C@H](C)[C@H](CN(C)S(=O)(=O)c2ccc(C#N)cc2)Oc2ncc(C#Cc3ccccc3)cc2C1=O | inactive
C[C@H]1CCCCO[C@@H](CN(C)Cc2ccc(C(=O)Nc3ccccc3N)cc2)[C@@H](C)CN([C@@H](C)CO)C(=O)c2cc(N(C)C)ccc2O1 | inactive
CC(C)NC(=O)N(C)C[C@@H]1Oc2ccc(NC(=O)Cc3ccccc3)cc2C(=O)N([C@@H](C)CO)C[C@H]1C | inactive

Tested on: S. aureus RN4220
Assay: growth inhibition call (relative growth <= 0.2)
Settings: 50 µM

Compound | growth inhibition call
COc1ccc(S(=O)(=O)N(C)C[C@@H]2Oc3c(NC(=O)Nc4cccc5ccccc45)cccc3C(=O)N([C@@H](C)CO)C[C@H]2C)cc1C | inactive
C[C@@H]1CN([C@H](C)CO)C(=O)c2cc(C#CCN(C)C)cnc2O[C@H]1CN(C)S(=O)(=O)c1cn(C)cn1 | inactive
CCOC(=O)c1ccc(CNS(=O)(=O)c2ccc(S(=O)(=O)N3CCOCC3)cc2)o1 | inactive
COc1ccc(S(=O)(=O)Nc2ccc3c(c2)CC(=O)N([C@H](C)CO)C[C@@H](C)[C@H](CN(C)S(=O)(=O)c2c(C)noc2C)O3)cc1 | inactive
CC(=O)N(C)C[C@H]1Oc2ncc(C#C[C@@H](C)O)cc2C(=O)N([C@H](C)CO)C[C@@H]1C | inactive
O=C(O)C=CC(=O)O.OCCOCCN1CCN(C2=Nc3ccccc3Sc3ccccc32)CC1 | inactive
NC(CO)(CO)CO.O=C(c1ccccc1)c1ccc2n1CCC2C(=O)O (stereo unspecified) | inactive
Cc1noc(C)c1NC(=O)N(C)C[C@@H]1Oc2ccc(NS(=O)(=O)c3cn(C)cn3)cc2CC(=O)N([C@H](C)CO)C[C@H]1C | inactive
O=C(C[C@@H]1CC[C@@H]2[C@H](COC[C@H](O)CN2S(=O)(=O)c2cccc(Cl)c2)O1)NCc1ccncn1 | inactive
COc1ccc2c3c([nH]c2c1)[C@@H](CO)N(Cc1ccccc1)C[C@]13CCN(CC1)C(=O)Nc1cccc(c1)F | inactive
CC(C)(C)[C@H]1COC(=O)[C@@H](NC(=O)OCC2c3ccccc3-c3ccccc32)CC=CC[C@H](CC(=O)NCCO)C(=O)N1 | inactive
Cc1noc(C)c1NC(=O)Nc1ccc2c(c1)CC(=O)N([C@H](C)CO)C[C@H](C)[C@@H](CN(C)Cc1ccc(C(F)(F)F)cc1)O2 | inactive
Cc1ccc(C(=N)N)n1C | inactive
CCn1nnc2c(=S)nc[nH]c21 | inactive
C[C@@H]1CN([C@@H](C)CO)C(=O)c2cc(NC(=O)Nc3cccc4ccccc34)ccc2O[C@@H]1CN(C)S(=O)(=O)c1cccs1 | inactive
COc1ccc(S(=O)(=O)N(C)C[C@H]2OCCCC[C@@H](C)Oc3ccc(NC(=O)Nc4ccc(F)cc4)cc3C(=O)N([C@@H](C)CO)C[C@@H]2C)cc1 | inactive
COC(=O)c1cc(=O)nc2n1[C@H]1O[C@H](CO)[C@H](O)[C@H]1O2 | inactive
C[C@@H]1CN([C@H](C)CO)C(=O)c2cc(NC(=O)C3CC3)ccc2O[C@@H]1CN(C)C(=O)NC1CCCCC1 | inactive
Cc1noc(C)c1NC(=O)Nc1ccc2c(c1)C(=O)N([C@H](C)CO)C[C@@H](C)[C@@H](CN(C)C(=O)NC1CCCCC1)OCCCC[C@H](C)O2 | inactive
CC[C@@H](O)CNNC(=O)OC(C)(C)C | inactive

Compound | growth inhibition call
Cn1cnc(CCNC(=O)C[C@H]2CC[C@H]3[C@@H](COC[C@H](O)CN3C(=O)Nc3ccc(Cl)cc3)O2)c1 | inactive
CCOC(=O)N(C)C[C@H]1OCc2cn(nn2)CCCC(=O)N([C@@H](C)CO)C[C@H]1C | inactive
C[C@@H]1CN([C@@H](C)CO)C(=O)c2cc(NS(=O)(=O)c3cn(C)cn3)ccc2O[C@@H]1CN(C)S(C)(=O)=O | inactive
Cc1noc(C)c1S(=O)(=O)Nc1ccc2c(c1)CC(=O)N([C@H](C)CO)C[C@@H](C)[C@H](CN(C)Cc1ccc(Oc3ccccc3)cc1)O2 | inactive
C[C@@H]1CCCCO[C@H](CN(C)CC2CCCCC2)[C@H](C)CN([C@H](C)CO)C(=O)c2cc(NC(=O)Nc3ccccc3)ccc2O1 | inactive
C[C@@H]1CN([C@@H](C)CO)C(=O)c2cccc(NC(=O)Nc3ccc(C(F)(F)F)cc3)c2O[C@@H]1CN(C)Cc1ccc2c(c1)OCO2 | inactive
COc1ccc(CN(C)C[C@H]2OCCCC[C@@H](C)Oc3ccc(NC(=O)Cc4ccccc4)cc3C(=O)N([C@@H](C)CO)C[C@H]2C)cc1 | inactive
COc1ccc2[nH]cc(CCNC(C)=O)c2c1 | inactive
COc1ccc(NC(=O)Nc2ccc3c(c2)C(=O)N([C@@H](C)CO)C[C@H](C)[C@@H](CN(C)S(=O)(=O)c2ccc(Cl)cc2)OCCCC[C@H](C)O3)cc1 | inactive
OCC1CCNCC1 | inactive
COc1ccc(NC(=O)Nc2ccc3c(c2)C(=O)N([C@@H](C)CO)C[C@H](C)[C@@H](CN(C)C(=O)c2ccccc2)OCCCC[C@H](C)O3)cc1 | inactive
C=CC[C@@H](CC(=O)N[C@H](CO)Cc1ccccc1)C(=O)NC[C@@H](OC(=O)[C@@H](CC=C)Cc1ccc(F)cc1)c1ccccc1 | inactive
C[C@H]1CN([C@@H](C)CO)C(=O)c2cc(NC(=O)NC3CCCCC3)ccc2O[C@H]1CN(C)S(C)(=O)=O | inactive
CC(C)(O)C#Cc1ccc([C@@H]2[C@@H](CO)N3CCCCN(S(C)(=O)=O)C[C@@H]23)cc1 | inactive
COc1cc(-c2cc(=O)c3c(=O)cc(-c4ccc(O)c(OC)c4)n(CCc4ccccc4)c3s2)ccc1O | inactive
COc1ccc(S(=O)(=O)Nc2ccc3c(c2)C(=O)N([C@H](C)CO)C[C@@H](C)[C@@H](CN(C)C(=O)Nc2cccc4ccccc24)O3)cc1 | inactive
C[C@@H]1CN([C@@H](C)CO)C(=O)c2cc(Br)cnc2O[C@H]1CN(C)C(=O)Nc1ccc(F)cc1 | inactive
C[C@H](CO)N1C[C@H](C)[C@H](CN(C)S(=O)(=O)c2ccc(C#N)cc2)Oc2ncc(C#Cc3ccccc3)cc2C1=O | inactive
C[C@H]1CCCCO[C@@H](CN(C)Cc2ccc(C(=O)Nc3ccccc3N)cc2)[C@@H](C)CN([C@@H](C)CO)C(=O)c2cc(N(C)C)ccc2O1 | inactive
CC(C)NC(=O)N(C)C[C@@H]1Oc2ccc(NC(=O)Cc3ccccc3)cc2C(=O)N([C@@H](C)CO)C[C@H]1C | inactive
